Assay results: PubChem BioAssay AID686978 (National Center for Advancing Translational Sciences (NCATS), 2013)
Several values for one entry are separate records, joined by “and”; a condition that tells them apart may be missing. Equal entries are not always repeated. In all, about 420,000 compounds went through this assay and about 64,000 (15%) were called active. Inconclusive means that the source gave no clear call. Such entries were picked first, then a sample of the others. Calls come from the whole dose curve; as a rule, active = well fitted inhibition curve with a large enough effect; inconclusive = small, poorly fitted or top-dose-only effect; inactive = flat fitted curve, though single readings scatter. Potencies of inconclusive entries are doubtful fits and often do not repeat.

test: qHTS for Inhibitors of human tyrosyl-DNA phosphodiesterase 1 (TDP1): qHTS in cells in absence of CPT; details: DT40 Tdp1-/- hTDP1 cells, no CPT, ATP luminescence, 48 h; activity change, negative = growth inhibition: at 46.2 µM (top of the series) unless noted; note: nearly all actives have a fitted effect of over 55% in size
How it was run: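 No-CPT arm: Tdp1-/-;hTDP1 DT40 cells (400/well) plus compounds, incubated ≥48 hr at 37 °C. Readout CellTiter-Glo luminescence.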
% is set by controls: 0 for no effect and ±100 for the full control effect; potency is the fitted concentration of half-maximal effect; tags give direction and shape of the fitted curve.

SMILES	Potency	activity change, negative = growth inhibition
CN(C)c1nnnn1-c1ccc(OC(F)(F)F)cc1	inactive	–
O=C(C1CCCN(S(=O)(=O)c2cnc[nH]2)C1)N1CC(=O)N(CCc2ccccc2)C(=O)C1 (configuration not stated)	inactive	–
FC(F)(F)c1cccc(NC(=S)NCC2COc3ccccc3O2)c1 (configuration not stated)	inconclusive: 29.1 µM [inhibitor, single point]	–
Cc1cccc(C)c1NC(=O)CN(C)C(=O)c1ccc(OCc2ccccc2)cc1	inconclusive: 18.4 µM [inhibitor, single point]	–
CCOC(=O)C1=C(COC(=O)CCCOc2ccccc2)NC(=O)NC1C (configuration not stated)	inactive	–
COc1ccc(-c2csc3ncnc(N4CCN(Cc5ccccc5)CC4)c23)cc1	inconclusive: 16.4 µM [inhibitor, single point]	–
CC1CCCCN1S(=O)(=O)c1ccc(S(=O)(=O)N2CCCC2)cc1 (configuration not stated)	inactive	–
CC1(C(=O)NC2CCN(Cc3ccccc3)CC2)CCN1Cc1ccc(OC(F)(F)F)cc1 (configuration not stated)	inconclusive: 16.4 µM [inhibitor, single point]	–
CN(C(=O)COC(=O)c1ccc(Cl)c(S(=O)(=O)N2CCCCC2)c1)C1(C#N)CCCCC1	inconclusive: 6.51 µM [inhibitor, single point]	–
Cc1cccnc1C1=NOC(Cc2ccccc2)C(=O)N1Cc1ccc(F)cc1 (configuration not stated)	inconclusive: 29.1 µM [inhibitor, single point]	–
COc1cc(C(=O)N2CC(C)OC(C)C2)c([N+](=O)[O-])cc1OC (configuration not stated)	inactive	–
COc1ccc(NC(=O)COC(=O)c2ccncc2)c(OC)c1	inactive	–
CC(C)CCN1C(Nc2ccccc2)=NC[C@@H]1CC(C)C	inconclusive: 29.1 µM [inhibitor, single point]	–
O=C(C(=O)N1CCN(Cc2ccccc2)CC1)c1c[nH]c2ccccc12	inactive	–
Cc1cc(Cl)ccc1N=C1N=C(N)c2ccccc21	inconclusive: 25.9 µM [inhibitor, single point]	–
COc1ccccc1CNc1nc(Nc2ccc(C)cc2C)c2sccc2n1	active: 7.31 µM	–
O=C(Nc1cccc(Oc2ccc(C(=O)O)c(C(=O)O)c2)c1)c1ccc(-c2ccccc2)cc1	inactive	–
Cc1ccc(S(=O)(=O)NCc2ccc3c(c2)OCO3)cc1C	–	inconclusive: -31.9% [inhibitor]
CC(CC(=O)Nc1cccc(Cl)c1)c1ccccc1 (configuration not stated)	inconclusive: 29.1 µM [inhibitor, single point]	–
O=C(CSc1c(Cl)cccc1Cl)N1CCC(c2nc3ccccc3s2)CC1	active: 20.6 µM	–
CCCNC(=O)Cn1sc2nc(C)cc(C)c2c1=O	active: 4.11 µM	–
CCc1ccccc1NC(=O)N[C@H](C(=O)O)C(C)C	inconclusive: 29.1 µM [inhibitor, single point]	–
CCc1ccccc1NC(=O)Cn1nc(C(F)(F)F)c2c1CCCC2	–	inconclusive: -31% [inhibitor]
O=C(CCN1CCN(c2ccccc2F)CC1)Nc1cccc(F)c1	inconclusive: 11.6 µM [inhibitor, partial curve]	–

SMILES	Potency	activity change, negative = growth inhibition
Clc1cccc(CNc2cc(-c3ccccc3)nc3nncn23)c1	active: 14.6 µM	–
C=CCc1ccccc1OCC(O)CN1CCN(C(=O)OCC)CC1 (configuration not stated)	inconclusive: 25.9 µM [inhibitor, single point]	–
Cc1cc(C)c(NC(=O)CCn2c(=O)c3cccn3c3cccnc32)c(C)c1	inactive	–
COc1ccc(C2C(C(=O)N3CCN(c4ccccc4)CC3)c3ccccc3C(=O)N2C)cc1 (configuration not stated)	inconclusive: 13 µM [inhibitor, partial curve]	–
COc1ccc(-n2c(C)cc(/C=C3\SC(=S)N(Cc4ccco4)C3=O)c2C)cc1	inconclusive: 29.1 µM [inhibitor, single point]	–
COc1ccc(C2(c3ccc(OC)cc3)NC(=O)N(CC(=O)N(C)C)C2=O)cc1	inactive	–
Cc1ccccc1Cn1c(Cc2ccccc2)nc2ccccc21	active: 18.4 µM	–
Cc1nnc(N(C(=O)c2cnccn2)c2ccccc2)s1	inconclusive: 29.1 µM [inhibitor, single point]	–
O=C([C@@H]1CC=C[C@@H]2CCN(C3CCCCC3)C(=O)[C@@H]21)N1CCN(c2ccccc2)CC1	inconclusive: 35.5 µM [inhibitor, single point] and inconclusive: 29.1 µM [inhibitor, single point]	–
Cc1ccc(S(=O)(=O)N(C)c2ccc(OC(=O)CN3C(=O)NC4(CCCC4)C3=O)cc2)cc1C	inactive	–
CN1C(=O)[C@H]2[C@@H](c3ccc(C(F)(F)F)cc3)N[C@]3(CCCN(Cc4ccco4)C3=O)[C@H]2C1=O	inconclusive: 29.1 µM [inhibitor, single point]	–
CN(C)C=C1C(=O)c2ccccc2C1=O	inconclusive: 29.1 µM [inhibitor, single point]	–
O=C(CNCc1ccccn1)Nc1ccc([N+](=O)[O-])cc1C(=O)Nc1ccccc1F	inconclusive: 18.4 µM [inhibitor, single point]	–
Fc1ccc(-c2csc3ncnc(N4CCN(c5ccccc5)CC4)c23)cc1	inconclusive: 16.4 µM [inhibitor, single point]	–
O=[N+]([O-])c1cccc(S(=O)(=O)c2ccc(NCCOCCO)c([N+](=O)[O-])c2)c1	inconclusive: 4.61 µM [inhibitor, full curve]	–
COc1ccc(/C=C2\SC(=O)N(CC(=O)NC3C=CS(=O)(=O)C3)C2=O)cc1 (configuration not stated)	inconclusive: 6.51 µM [inhibitor, single point]	–
Cc1cc(Nc2cccc(Cl)c2)nc(NCc2ccccc2)n1	active: 3.66 µM	–
CCOC(=O)c1c(NC(=S)NC(=O)c2cnn(CC)c2)sc2c1CCC(C)C2 (configuration not stated)	inconclusive: 7.31 µM [inhibitor, partial curve]	–
COc1ccc2[nH]cc(CCNc3cc(-c4ccccc4C(F)(F)F)ncn3)c2c1	inconclusive: 18.4 µM [inhibitor, partial curve, poor fit]	–
CC1(C)Cc2cccc(C(=O)Nc3ccc(F)cc3F)c2O1	inconclusive: 29.1 µM [inhibitor, single point]	–
Cc1ccc(-c2cc(-c3cccc(F)c3)n[nH]2)c(O)c1	inconclusive: 29.1 µM [inhibitor, single point]	–
O=C(NCCS(=O)(=O)NC1CCCC1)c1ccccc1	inactive	–
COc1ccc(CN2C(=O)c3ccccc3C2c2nnnn2-c2ccc3c(c2)OCCO3)cc1 (configuration not stated)	active: 16.4 µM	–
COc1ccc(Cl)cc1C(=O)Nc1ccc(Br)c(C)n1	inconclusive: 25.9 µM [inhibitor, single point]	–

SMILES	Potency	activity change, negative = growth inhibition
O=C(NCCCN1CCCC1=O)c1cccc(NS(=O)(=O)c2ccc(Br)cc2)c1	inconclusive: 16.4 µM [inhibitor, single point]	–
CC1=C([N+](=O)[O-])C(c2ccc(Cl)cc2)NC(=O)N1C (configuration not stated)	active: 5.8 µM	–
Clc1ccc(C(CCN2CCCC2)Cc2ccccc2)cc1 (configuration not stated)	inconclusive: 25.9 µM [inhibitor, single point]	–
CCC(C(=O)Nc1nc(C)c(C)s1)c1ccccc1 (configuration not stated)	inconclusive: 29.1 µM [inhibitor, single point]	–
O=C1OC(CC(=O)N(Cc2nnc(-c3ccccc3Cl)o2)C2CC2)c2ccccc21 (configuration not stated)	inconclusive: 32.6 µM [inhibitor, single point]	–
Cc1csc(=O)n1CCC(=O)OC(C)C(=O)NCc1ccccc1 (configuration not stated)	inactive	–
CC(Nc1ccc(Br)cc1)C(=O)Nc1cccc(S(=O)(=O)N2CCOCC2)c1 (configuration not stated)	inconclusive: 23.1 µM [inhibitor, single point]	–
CCOC(=O)CC(=O)CSCC(=O)Nc1ccc(C)cc1	inconclusive: 20 µM [inhibitor, single point]	–
COc1ccc(C(C(=O)NC2CCCCC2)N(C(=O)c2ccco2)c2ccccc2OC)cc1 (configuration not stated)	active: 16.4 µM	–
CCCC(c1nnnn1Cc1ccco1)N1CCC(C(N)=O)CC1 (configuration not stated)	inactive	–
C[C@H]1CN([C@@H](C)CO)C(=O)CCCn2cc(nn2)CO[C@@H]1CN(C)C(=O)Nc1cccc2ccccc12	–	inconclusive: -16.4% [inhibitor]
CC(C)C[C@H](NC(=O)c1[nH]cnc1C(=O)N[C@@H](Cc1ccccc1)C(=O)OC(C)(C)C)C(=O)OCc1ccccc1	active: 23.1 µM	–
CC(C)C[C@H]1COc2cc(N3CCC[C@H]3CO)ccc2S(=O)(=O)N1	inactive	–
Clc1ccccc1-c1nc(Nc2ccncc2)c2ccccc2n1	inconclusive: 14.6 µM [inhibitor, partial curve, poor fit]	–
Cc1noc(C)c1COC(=O)/C=C/c1ccc(Cl)cc1	active: 16.4 µM	–
N#Cc1cccc(-c2nc(N3CCNCC3)c3ccccc3n2)c1	active: 18.4 µM	–
C/C(=N\NC(=O)c1cccc(S(=O)(=O)Nc2ccc(C)cc2C)c1)c1ccncc1	–	inconclusive: -30.2% [inhibitor]
COC(=O)C1CCN(Cc2ccc3c(c2)CN(C(=O)C2CCCN(c4ccccn4)C2)CCO3)CC1 (configuration not stated)	inactive	–
Cc1cccc(N2CCn3c2nc2c3c(=O)n(CCc3ccccc3)c(=O)n2C)c1	inconclusive: 3.26 µM [inhibitor, full curve]	–
COc1ccc(NC(=O)CSc2nnnn2C2CCCCC2)cc1	inactive	–
O=C1c2ccccc2C(=O)N1CCC1=CCCCC1	inactive	–
CN(C)S(=O)(=O)c1ccc(C(=O)NC2CCCc3ccccc32)cc1 (configuration not stated)	inactive	–
CC(C)N1C(=O)C(O)(c2c[nH]c3ccccc23)c2ccccc21 (configuration not stated)	inconclusive: 7.31 µM [inhibitor, single point]	–
CC(C(=O)Nc1ccc(C#N)cc1)N(C)CC(=O)Nc1ccccc1Br (configuration not stated)	inconclusive: 13 µM [inhibitor, partial curve]	–
